Source: PubChem BioAssay AID602179 (National Center for Advancing Translational Sciences (NCATS), 2012)
The campaign covered roughly 390,000 compounds. About 360 (0.092%) were called active. Inconclusive results, whose numbers are uncertain, are shown with a selection of clear calls. Calls follow the shape of the dose curve; as a rule, active = well fitted inhibition curve with a large enough effect; inconclusive = small, poorly fitted or top-dose-only effect; inactive = no such curve, though single readings can be large or run the other way. Potencies beside an inconclusive call are fits to weak or partial responses and may not hold up.

Target: Isocitrate dehydrogenase [NADP] cytoplasmic (Homo sapiens) (UniProt O75874)
Experiment: qHTS for Inhibitors of mutant isocitrate dehydrogenase 1 (IDH1): qHTS; also: nearly all actives have a fitted effect of over 65% in size
Details: IDH1-R132H enzyme, NADPH consumption, diaphorase/resazurin fluorescence; series mostly up to 76.6 µM; activity change, negative = inhibition: at the top concentration
In short: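 IDH1-R132H (0.5 ug/mL) preincubated 30 min with compound, then NADPH (0.016 mM) and alpha-KG (2 mM) added; 80 min at RT, pH 7.5. Remaining NADPH coupled via diaphorase/resazurin to fluorescence (540/590 nm); concentration-response curves normalized to no-enzyme control.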
% is scaled to controls: 0 for no effect and ±100 for the full control effect; potency is read from the fitted curve at half-maximal effect; tags tell the direction and shape of the fitted curve.

SMILES | activity change, negative = inhibition | Potency
COc1ccc(-c2nc(N)n(S(=O)(=O)c3ccc(C)cc3)n2)cc1 | inactive: 2.25% | –
Cc1cc(NC(=O)CCC(=O)N(c2cccnc2)C(C(=O)NC2CCCC2)c2ccccc2F)no1 (stereo not drawn) | – | inconclusive: 10.4 µM [inhibitor, full curve, poor fit]
CCOC(=O)/C(=C\c1cccnc1)C(=O)c1cc(C(C)=O)c(Nc2ccccc2)s1 | – | inconclusive: 52.1 µM [inhibitor, single point]
Fc1ccc(-n2cc(-c3ccccc3)c3c(NN4CCOCC4)ncnc32)cc1 | – | inconclusive: 58.5 µM [inhibitor, single point]
NC(=O)c1sc2nc3c(c(-c4ccc(Cl)cc4)c2c1N)CCCC3 | – | inconclusive: 52.1 µM [inhibitor, single point]
O=S(Cc1ccc(Br)cc1)Cc1nnc(SCc2c(F)cccc2Cl)n1-c1ccccc1 (stereo not drawn) | inactive: 0.513% | –
COc1ccc(Nc2nc(=O)c3cc([N+](=O)[O-])ccc3s2)cc1 | inactive: -14.7% | –
CC(CCc1ccccc1)NC(=O)COC(=O)c1ccc(S(C)(=O)=O)c([N+](=O)[O-])c1 (stereo not drawn) | – | inconclusive: 46.5 µM [inhibitor, partial curve]
Cc1ccc(NC2c3ncccc3C(=O)N2c2ccccc2C)cc1C (stereo not drawn) | – | inconclusive: 58.5 µM [inhibitor, single point]
CCOCCCN1C(=O)c2[nH]nc(-c3ccccc3O)c2C1c1ccc(CC)cc1 (stereo not drawn) | – | inconclusive: 63.1 µM [inhibitor, single point]
Oc1ccc(/C=N/NC(=S)N/N=C/c2ccc(O)cc2)cc1 | inactive: -4.8% | –
NC(=O)c1c(NC(=O)c2cnccn2)sc2c1CCCC2 | inactive: -0.561% | –
CCS(=O)(=O)C1=NN2C(=N)/C(=C\c3ccc(OS(=O)(=O)c4ccccc4)cc3)C(=O)N=C2S1 | – | inconclusive: 58.5 µM [inhibitor, single point]
CC1=C([N+](=O)[O-])C(c2ccc(Cl)cc2)NC(=O)N1C (stereo not drawn) | inactive: -4.54% | –
COC(=O)c1c(NC(C)=O)sc(Cc2ccccc2)c1C | – | inconclusive: 18.5 µM [inhibitor, partial curve]
COc1ccc(C)cc1NC(=O)c1cc(S(=O)(=O)N2CCCCC2)ccc1N1CCOCC1 | inactive: -2.86% | –
O=C(Nc1nnc(SCc2ccc(F)cc2)s1)c1ccc2ncsc2c1 | – | active: 52.1 µM
CC[C@]12c3[nH]c4ccc(Cl)cc4c3CCN1C(=O)[C@@H](CC(=O)NC/C=C(\C)CCC=C(C)C)C[C@@H]2C(=O)N1CCN(C(=O)c2ccco2)CC1 | – | inconclusive: 39.8 µM [inhibitor, partial curve]
CSCCC(NC(=O)c1cccc(S(=O)(=O)N2CCOCC2)c1)c1nc2ccccc2[nH]1 (stereo not drawn) | inactive: -0.417% | –
Cc1ccc(C(C2=C(O)CC(C)(C)CC2=O)C2C(=O)CC(C)(C)CC2=O)s1 (stereo not drawn) | inactive: 2.38% | –
O=C(c1ccc(S(=O)(=O)NCC2CCCO2)cc1)N1CCc2ccccc21 (stereo not drawn) | inactive: 5.4% | –
COc1cc(/C=C2\SC(=S)N(CCCCC(=O)O)C2=O)ccc1OS(=O)(=O)c1ccc(C)cc1 | – | inconclusive: 58.5 µM [inhibitor, single point]

SMILES | activity change, negative = inhibition | Potency
COc1cccc(C(C(=O)NC2CCCCC2)N(C(=O)c2ccccn2)c2cccnc2)c1 (stereo not drawn) | inactive: -2.39% | –
CCOc1cccc(N(C(=O)Cc2cccs2)C(C(=O)NC2CCCCC2)c2cccn2C)c1 (stereo not drawn) | – | inconclusive: 10.4 µM [inhibitor, partial curve, poor fit]
COc1ccc(Cl)cc1-n1c(=S)sc2c(=O)n(-c3ccc(F)cc3)c(SCC(=O)O)nc21 | – | inconclusive: 22.4 µM [inhibitor, full curve]
CSc1nn(Cc2cccc(C)c2)c(N)c1S(=O)(=O)c1ccccc1 | – | inconclusive: 25.1 µM [inhibitor, single point]
O=C(Nn1c(C2CCCCC2)nc2ccccc2c1=O)c1ccc([N+](=O)[O-])cc1 | – | inconclusive: 16.5 µM [inhibitor, partial curve, poor fit]
Cc1cc(NC(=O)CCC(=O)N(c2cccnc2)C(C(=O)NC2CCCC2)c2ccccc2)no1 (stereo not drawn) | – | inconclusive: 6.56 µM [inhibitor, partial curve, poor fit]
CCc1ccccc1N=Cc1c(C)c(C#N)c2[nH]c3ccccc3n2c1=O | inactive: -2% | –
CC(=O)Nc1cccc(NC(=O)CS(=O)(=O)c2cn(CC(=O)N(C(C)C)C(C)C)c3ccccc23)c1 | – | inconclusive: 58.5 µM [inhibitor, single point]
CC(C)CCNC(=O)C(c1ccc(O)cc1)N(C(=O)C1COc2ccccc2O1)c1cccc(O)c1 (stereo not drawn) | – | inconclusive: 41.4 µM [inhibitor, partial curve]
CCOC(=O)c1cnc2ccc(OCC)cc2c1NCc1ccccc1OC | inactive: -9.53% | –
Cc1ccc(-c2ccc(C3C(C#N)=C(N)Oc4n[nH]c(C)c43)o2)cc1 (stereo not drawn) | – | inconclusive: 52.1 µM [inhibitor, single point]
NNC(=O)CNC(c1ccccc1)c1cc(Br)ccc1NC(=O)c1ccccc1Br (stereo not drawn) | – | inconclusive: 23.3 µM [inhibitor, partial curve, poor fit]
CCOC(=O)C1=C(C)NC(=O)C1CC(=O)O (stereo not drawn) | – | inconclusive: 41.4 µM [inhibitor, partial curve]
Cc1cc(C(=O)CCl)c(C)n1CCc1ccc(Cl)cc1 | – | inconclusive: 52.1 µM [inhibitor, single point]
CCCCOC(=O)CSC1=C(C#N)C(c2ccccc2OCC)C(C#N)C(=O)N1 (stereo not drawn) | – | inconclusive: 52.1 µM [inhibitor, partial curve]
Cc1cc(/C=N/NC(N)=S)c(C)n1-c1ccc(Cl)cc1 | inactive: 2.71% | –
CCCOc1ccc(-c2cc(C(F)(F)F)c(C#N)c(SCCC(=O)O)n2)cc1 | – | inconclusive: 50.1 µM [inhibitor, single point]
CC(=O)c1ccc(NC(=O)N2CCN(c3cccc(Cl)c3)CC2)cc1 | inactive: -1.72% | –
Cc1cc(C)cc(N(C(=O)Cc2cccs2)C(C(=O)NC2CCCC2)c2ccc(C)o2)c1 (stereo not drawn) | – | active: 7.36 µM
CC(=O)C1=C(c2ccccc2)N(C(C)=O)n2c(C)nnc2S1 | – | active: 29.3 µM
COc1ccc(C(NC(=O)CN2C(=O)NC3(CCc4ccccc43)C2=O)c2ccccc2)cc1 (stereo not drawn) | inactive: 0.365% | –
